# Experimental data from PubChem BioAssay AID1240 (Sanford-Burnham Center for Chemical Genomics, 2008).
# Hit rate of the full screen: of about 50,000 compounds, about 800 (1.6%) showed an effect of 50% or more. The list shows a part of the results.
# Target: Bcl-2-like protein 10 (Homo sapiens) (UniProt Q9HD36)
# Test: TR3 peptide-Bcl-B binding displacers, biochemical primary FP assay, phenotype converters (AID 1240);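 further: 0% = Bcl-B with tracer peptide and DMSO and 100% = tracer peptide lacking Bcl-B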
# Settings: GST-Bcl-B / FITC-TR3 peptide fluorescence polarization; stronger effect = higher value; compound at 3.75 mg/L
# Chain of UniProt Q9HD36 (Q9HD36 whole entry, looked up): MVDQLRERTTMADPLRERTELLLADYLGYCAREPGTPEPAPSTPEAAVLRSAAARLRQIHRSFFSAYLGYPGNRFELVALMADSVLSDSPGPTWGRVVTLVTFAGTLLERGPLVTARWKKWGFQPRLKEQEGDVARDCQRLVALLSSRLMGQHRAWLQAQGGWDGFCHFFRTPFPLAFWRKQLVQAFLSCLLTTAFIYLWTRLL
row,Compound,displacement
1,C=CCOc1ccc(/C=C/C(=O)c2ccc(F)cc2)cc1,-10.8%
2,O=C(/C=C/c1ccco1)Nc1ccccc1,12.4%
3,Cc1c(C)c(C)c(C(=O)Nc2ccc(Cl)c(C(N)=O)c2)c(C)c1C,-7.6%
4,O=C1S/C(=C/c2ccccc2)C(=O)N1CNc1ccccc1F,-2.9%
5,Cc1ccc2nsnc2c1NC(=O)c1ccccc1I,15.3%
6,Cc1ccc(C(=O)N2CCCc3ccccc32)cc1,-8%
7,CCOC(=O)c1c(NC(=O)c2ccccc2OCC)sc(C)c1C,3.6%
8,CCCCCn1c(/N=C/c2c(O)ccc3oc4c(c23)CCCC4)nc2ccccc21,10.4%
9,Cc1ccccc1-n1c(-c2ccccc2)nc2c(cnn2-c2ccccc2)c1=O,4.6%
10,Cc1ccc2c(nc3s/c(=C\c4ccc(Cl)cc4Cl)c(=O)n32)c1C,-22.3%
11,Clc1cccc(/C=N/Nc2cc(N3CCOCC3)ncn2)c1,-7.7%
12,O=C(Nc1cc(Cl)cc(Cl)c1)c1ccc(I)cc1,13.6%
13,O=S(=O)(c1ccc(Br)c2ccccc12)N1CCOCC1,13.8%
14,COc1ccc(NC(=O)CSc2nc(C)cc(=O)[nH]2)cc1,-2.3%
15,Cc1ccc(NC(=O)C(=O)NCCCOC(C)C)c(C)c1,10.7%
16,O=C(O)CCCN1C(=O)/C(=C/c2cccc(Br)c2)SC1=S,91.2%
17,Cc1ccc(-c2nc3cc(Cl)ccc3o2)cc1NC(=O)c1ccc(Br)o1,3.2%
18,O=C(c1ccc(Cl)c(Cl)c1)N1CCN(c2ccccc2)CC1,1.9%
19,N#C/C(=C\NCC(=O)O)C(=O)NCc1ccccc1,3.7%
20,CCOCCOC(=O)c1ccc(NC(=O)c2cncc(Br)c2)cc1,6.2%
21,O=C(Nc1ccc(Cl)c(Cl)c1)c1ccccc1C(F)(F)F,-5.1%
22,O=C(NN1CCOCC1)c1cccs1,3.1%
23,O=C1C(Cl)=C(NCCc2ccccc2)C(=O)N1c1ccccc1,16.4%

row,Compound,displacement
1,COc1cc(OC)c(-c2nc3sc4c(c3c(=O)[nH]2)CCCC4)cc1Br,-14.1%
2,O=C(CSc1nc2ccccc2s1)Nc1ccccc1[N+](=O)[O-],-10.7%
3,CC(C)(C(=O)c1ccccc1)/[N+]([O-])=C/c1ccccc1,-1.5%
4,Cc1cc(=O)[nH]c(N/N=C/c2ccc(Br)cc2)n1,-2.8%
5,O=S(=O)(c1ccccc1)N1CCN(Cc2ccccc2Br)CC1,-21%
6,CCOc1ccc2sc(NC(=O)CCCC(=O)OCC(F)(F)C(F)F)nc2c1,1%
7,CC(=C\c1ccccc1)/C=C1/SC(=S)N(c2cccc(Cl)c2)C1=O,5.1%
8,O=C1C2C(c3ccc(Cl)cc3)OC3(C(=O)c4ccccc4C3=O)C2C(=O)N1c1cccc(F)c1 (centres undefined),-24.3%
9,Cc1cc(C)n(CCOc2nonc2N)n1,6.5%
10,O=C(c1cccnc1)N1N=C2CCCCCC2C1(O)C(F)(F)F (centres undefined),-19.7%
11,COc1cc(C(=O)NC(NC(=S)Nc2ccc(Cl)c(Cl)c2)C(Cl)(Cl)Cl)cc(OC)c1OC (centres undefined),14.8%
12,CC(=O)OCCCNC(=O)/C(=C\c1ccc(Br)cc1)NC(=O)c1ccccc1,2.7%
13,O=C(NCCc1ccccc1)C1COc2ccccc2O1 (centres undefined),3.8%
14,Cc1cc(C)n2nc(-c3cccc(Cl)c3)cc2n1,2.7%
15,Cc1ccccc1CN1CCN(C(=O)C(c2ccccc2)c2ccccc2)CC1,-8.7%
16,Cc1cc(C)nc(/N=C(/N)Nc2cccc(C(F)(F)F)c2)n1,-2%
17,C=CCn1c2ccccc2n2nc(C)c(C(=O)/C=C/c3ccccn3)c12,-4.5%
18,O=C(c1ccc(S(=O)(=O)N2CCCCCC2)cc1)N1CCN(c2ccccc2)CC1,0.7%
19,O=C1NC(=O)N(c2ccccc2)C(=O)/C1=C\c1ccc(OCc2ccccc2F)cc1,12.9%
20,C/C(=C1/SC(=S)NC1=O)c1ccc(C)cc1,12.6%
21,Cc1ccc(-c2nnc(N)s2)cc1C,5.1%
22,Cc1ccc(N(CC(=O)Nc2ccc(Cl)cc2)S(C)(=O)=O)cc1Cl,7.8%
23,O=C(O)c1cc(S(=O)(=O)N(CCO)CCO)ccc1Cl,-7.4%

row,Compound,displacement
1,O=C(Nc1ccc(Cl)c(C(F)(F)F)c1)c1ccccc1Br,1.1%
2,CCN(CC)c1ccc(/C=N\N2CCN(Cc3ccc(C)cc3)CC2)c(O)c1,1.8%
3,O=C1N=C(N2CCCCC2)S/C1=C\c1ccc(F)cc1,-19.3%
4,O=C(CSc1ccccn1)Nc1ccc(/C=C/c2ccccc2)cc1,-1.1%
5,Cc1onc(-c2ccccc2)c1C(=O)N(C)C,-0.2%
6,COC(=O)c1ccc(NC(=O)Cc2ccccc2)cc1,-15%
7,O=c1c(C(c2ccccc2)c2ccccc2)c(O)nc2n1CCCS2,-2.7%
8,Cc1ccc(-c2nc3sc4c(c3c(=O)[nH]2)CCCC4)cc1,-2.6%
9,O=C(NN=C1CCCCCC1)c1ccc(Cl)c(Cl)c1,10.3%
10,O=S(=O)(c1ccc(Cl)cc1)N1CCNCC1,-13.9%
11,CSCCC(C(=O)O)N1C(=O)NC2NC(=O)NC21 (centres undefined),3.3%
12,CN(C)c1ccc(/C=C2/C(=O)NN(c3ccc(F)c(Cl)c3)C2=O)cc1Br,22.9%
13,O=C(O)c1ccc(NC(=O)c2cc3cc(Br)ccc3oc2=O)cc1,0.3%
14,Cc1cc(C)c(NC(=O)c2ccc([N+](=O)[O-])c(C)c2)c(C)c1,0.3%
15,Cc1ccc(COc2ccc(C=C3C(=O)NC(=O)NC3=O)cc2Br)cc1,8%
16,O=C(O)c1ccc2c(c1)C(=O)N(c1ccc(C(=O)Nc3cccc(O)c3)cc1)C2=O,-4.9%
17,O=C(NCc1ccc2c(c1)OCO2)c1ccc(C#CC2(O)CCCCC2)cc1,-1%
18,COc1ccc(Br)cc1CNCc1ccc(OC)c(OC)c1,3.3%
19,COc1ccc(NC(=O)CN(c2cccc(C(F)(F)F)c2)S(C)(=O)=O)c(OC)c1,7.1%
20,O=C(CN1C(=O)c2ccc([N+](=O)[O-])cc2C1=O)NN1C(=O)c2ccccc2C1=O,-3.8%
21,c1ccc(-c2ccc(-n3cnc4ccccc43)cc2)cc1,1.8%
22,CC(C)(C)c1ccc(C(=O)Nc2cc(C(N)=O)cc(C(N)=O)c2)cc1,-3.4%
23,CC(C)Cn1c(=O)c(C(=O)Nc2ncccn2)c(O)c2ccccc21,10.4%

row,Compound,displacement
1,CCN(CC)c1ccc(NC(=O)c2ccc3ccccc3c2)cc1,12.9%
2,CCOC(=O)C1=C(C)N(c2ccc(C)cc2)C(=O)/C1=C\c1cccc(OC)c1O,12.9%
3,O=C(CN1C2=NCCN2c2ccccc21)c1ccc(Br)s1,8.6%
4,Cc1ccc(S(=O)(=O)Nc2cc(C(C)(C)C)c(O)c(C(C)(C)C)c2)cc1,1.2%
5,CCOC(=O)c1c(C)oc2ccc(OC(=O)c3ccccc3C)cc12,8.3%
6,Cc1ccc(/C=N/NC(=O)C2(C)CC2(Br)Br)cc1 (centres undefined),2%
7,COCCCNC(=O)C(=O)NCCc1ccc(OC)c(OC)c1,11.3%
8,Cc1ccc(C(=O)O)cc1N1C(=O)c2ccc(Oc3ccc([N+](=O)[O-])cc3)cc2C1=O,0.7%
9,O=C(/C=C/c1ccccc1)NC(=S)Nc1ccc(NC(=O)c2cccc(Cl)c2)cc1,12.6%
10,C=CCN1C(=O)/C(=C\c2ccccc2C)C(=O)NC1=S,-4%
11,C=CCc1ccccc1OCCOc1ccc(/C=C2/SC(=S)N(C)C2=O)cc1OC,12.9%
12,Cc1ccc(/C=N/Nc2ccccn2)cc1,-0.6%
13,COc1ccc(-c2nnc(NC(=O)c3ccccc3C)s2)cc1OC,44.2%
14,N#CSC(CS(=O)(=O)c1ccccc1)c1ccccc1 (centres undefined),0.9%
15,CCN(CC)c1ccc(/C=N/Nc2cc(N3CCOCC3)nc(N3CCOCC3)n2)cc1,-3.4%
16,O=C(O/N=C(/c1ccccc1)c1ccncc1)c1ccc(Cl)cc1Cl,-4.1%
17,Cc1ccc(NC(=O)C(=O)NCCN2CCOCC2)cc1,8.9%
18,C(=N\Nc1nn[nH]n1)/c1ccc2c(c1)OCO2,10.2%
19,Cc1nc(Nc2ccccc2)c(C(F)(F)F)c(C(F)(F)C(F)(F)F)n1,13.1%
20,C=CCc1cc(/C=C2/C(=O)NC(=O)N(c3cccc(C)c3)C2=O)cc(OC)c1O,1.1%
21,Cc1c(Cl)cccc1N=C1NC(=O)/C(=C/c2ccc(-c3ccccc3C(=O)O)o2)S1,-124%
22,CC(C)COc1ccc(C(=O)Nc2cccc(C(F)(F)F)c2)cc1,4.9%
23,Clc1ccc(OCCOCCN2CCCC2)c2ccccc12,6.7%

row,Compound,displacement
1,Clc1ccccc1-c1noc(C23CC4CC(CC(C4)C2)C3)n1,-10.2%
2,COc1ccc(/C=C/C(=O)Nc2ccc(OC)c(OC)c2)cc1,4.9%
3,COC(=O)c1cc(-c2cccc(N)c2)nc2ccccc12,-13.3%
4,Fc1ccc(-c2nnn(Cc3nn[nH]n3)n2)cc1,-13.6%
5,COc1cc(/C=C2/SC(=S)NC2=O)cc(Cl)c1OCc1cccc2ccccc12,1.5%
6,COc1ccccc1/C=N/Nc1nc(N2CCOCC2)nc(N2CCOCC2)n1,6.6%
7,O=C1CCCC(O)=C1C=NCCCn1ccnc1,0.1%
8,O=[N+]([O-])c1cc(C2Nc3cccc4cccc(c34)N2)ccc1Cl,14.4%
9,O=[N+]([O-])c1ccccc1OCCOc1ncnc2ccccc12,8.3%
10,Cc1nc2ccccc2n1S(=O)(=O)c1ccc(F)cc1,11.2%
11,O=C1NC(=O)N(c2ccc(Cl)cc2)C(=O)/C1=C/c1cccs1,15.5%
12,O=C1OCC(Cn2c3ccccc3c3ccccc32)O1 (centres undefined),-2.2%
13,CCOC(=O)c1[nH]cnc1C(=O)Nc1ccc(Br)cc1,19.1%
14,O=C(Nc1ccccc1-c1ccccc1)c1ccc(F)cc1,7.9%
15,O=C(/C=C/c1ccc(-c2ccc(Cl)cc2)o1)c1ccccc1,41.8%
16,O=C(c1nn2c(c1Br)NC(c1ccccc1)CC2C(F)(F)F)N1CCOCC1 (centres undefined),6.8%
17,O=C(CN(c1cccc(Cl)c1)S(=O)(=O)c1ccccc1)NCCSc1nc2ccccc2s1,13.1%
18,C=CCN(CC=C)C(=O)c1ccccc1NC(=O)c1ccccc1C,-10.6%
19,Cn1ncc(Cl)c1C(=O)N(C(=O)c1c(Cl)cnn1C)c1ccccc1C(F)(F)F,-3.6%
20,O=C(O)[C@@H]1C2CCCCC2=C2CCCCC2[C@@H]1C(=O)O (some centres undefined),18.6%
21,N#C/C(=C\c1ccc2c(c1)OCO2)C(=O)NCc1ccco1,-15.4%
22,CCOC(=O)CN1C(=O)C(O)(CC(=O)c2cccs2)c2ccccc21 (centres undefined),-5.7%
